# Experimental data from PubChem BioAssay AID624417 (National Center for Advancing Translational Sciences (NCATS), 2012).
# Screen size: about 410,000 compounds; about 6,400 (1.6%) were called active. This list was built around the results that the source calls inconclusive (neither active nor inactive); the mix of calls is not that of the screen. The call rests on the fitted dose curve; in most records, active means well fitted inhibition curve with a large enough effect; inconclusive means small, poorly fitted or top-dose-only effect; inactive means no such curve, though single readings can be large or run the other way. Potencies of inconclusive entries are left out as doubtful fits.
# Molecular target: Glucagon-like peptide 1 receptor (Homo sapiens) (UniProt P43220)
# Assay: qHTS of GLP-1 Receptor Inverse Agonists (Inhibition Mode); further: nearly all actives have a fitted effect of over 55% in size
# Details: HEK293 GLP-1R CRE-luciferase, luminescence, 24 h, GLP-1R form is constitutively active; series mostly up to 38.3 µM
# In short: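 Stable HEK293 clone (constitutively active GLP-1R + cAMP-response luciferase); 200 cells/uL plated, 12 h pre-culture, compound 24 hr, 37 deg C/5% CO2; detection reagent 12 min RT; luminescence.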
# Potency means the concentration at half of the fitted maximal effect; tags describe the fitted curve by direction and shape.
# Chain of UniProt P43220 (P43220 whole entry, looked up): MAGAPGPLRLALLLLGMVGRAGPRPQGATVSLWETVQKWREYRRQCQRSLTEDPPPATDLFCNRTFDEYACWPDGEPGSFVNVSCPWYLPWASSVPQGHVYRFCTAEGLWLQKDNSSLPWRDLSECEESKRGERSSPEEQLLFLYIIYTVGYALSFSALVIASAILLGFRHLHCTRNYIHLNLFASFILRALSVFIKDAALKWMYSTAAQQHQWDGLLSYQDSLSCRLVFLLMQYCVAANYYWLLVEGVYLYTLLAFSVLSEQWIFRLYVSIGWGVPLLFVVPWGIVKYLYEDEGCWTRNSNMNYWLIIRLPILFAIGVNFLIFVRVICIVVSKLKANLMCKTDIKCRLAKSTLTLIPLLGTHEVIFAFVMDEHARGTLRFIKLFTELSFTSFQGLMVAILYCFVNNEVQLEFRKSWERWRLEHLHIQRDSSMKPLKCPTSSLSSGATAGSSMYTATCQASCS
row,SMILES,Potency
1,CC(Nc1ccc(Br)cc1)C(=O)Nc1cccc(S(=O)(=O)N2CCOCC2)c1 (stereo not drawn),"inconclusive [inhibitor, single point]"
2,COc1ccc(C(C(=O)NC2CCCCC2)N(C(=O)c2ccco2)c2ccccc2OC)cc1 (stereo not drawn),"inconclusive [inhibitor, single point]"
3,CCC(C(=O)Nc1nc(C)c(C)s1)c1ccccc1 (stereo not drawn),"inconclusive [inhibitor, partial curve, poor fit]"
4,CC1=C([N+](=O)[O-])C(c2ccc(Cl)cc2)NC(=O)N1C (stereo not drawn),"inconclusive [inhibitor, partial curve, poor fit]"
5,Clc1ccc(C(CCN2CCCC2)Cc2ccccc2)cc1 (stereo not drawn),"inconclusive [inhibitor, single point]"
6,CC(=O)Nc1cc(C(=O)CSc2nnc(C3CC3)n2C2CC2)ccc1O,inactive
7,COCCc1nc2ccc(C(=O)N3CCCCC3COC)cc2o1 (stereo not drawn),inactive
8,Cc1ccc(-c2cc(-c3cccc(F)c3)n[nH]2)c(O)c1,"inconclusive [inhibitor, partial curve, poor fit]"
9,Fc1ccc(-c2csc3ncnc(N4CCN(c5ccccc5)CC4)c23)cc1,active: 12.6 µM
10,CN1C(=O)[C@H]2[C@@H](c3ccc(C(F)(F)F)cc3)N[C@]3(CCCN(Cc4ccco4)C3=O)[C@H]2C1=O,inactive
11,Cc1ccc(C)c(OCc2cc(C(=O)N3CCOCC3)no2)c1,inactive
12,CC(=O)OCC1=C(C(=O)O)N2C(=O)C(NC(=O)CCn3nc(C)c(Cl)c3C)C2SC1 (stereo not drawn),inactive
13,Cc1ccccc1Cn1c(Cc2ccccc2)nc2ccccc21,"inconclusive [inhibitor, full curve, poor fit]"
14,Cc1cc(-c2ccc(C(C)C)c(S(=O)(=O)N3CCN(c4ccccc4)CC3)c2)on1,"inconclusive [inhibitor, full curve, poor fit]"
15,Cc1cc(C)c(NC(=O)CCn2c(=O)c3cccn3c3cccnc32)c(C)c1,inactive
16,COc1ccc(-n2c(C)cc(/C=C3\SC(=S)N(Cc4ccco4)C3=O)c2C)cc1,"inconclusive [inhibitor, partial curve, poor fit]"
17,CCc1ccccc1NC(=O)Cn1nc(C(F)(F)F)c2c1CCCC2,inactive
18,Clc1cccc(CNc2cc(-c3ccccc3)nc3nncn23)c1,"inconclusive [inhibitor, single point]"
19,COc1ccccc1CNc1nc(Nc2ccc(C)cc2C)c2sccc2n1,active: 10 µM
20,C/C(=N\N(c1ccccc1)c1ccccc1)c1ccc(O)cc1,"inconclusive [inhibitor, single point]"
21,O=C(Nc1cccc(Oc2ccc(C(=O)O)c(C(=O)O)c2)c1)c1ccc(-c2ccccc2)cc1,"inconclusive [inhibitor, full curve]"
22,O=C(CSc1c(Cl)cccc1Cl)N1CCC(c2nc3ccccc3s2)CC1,"inconclusive [inhibitor, partial curve, poor fit]"

row,SMILES,Potency
1,CC(C)c1ccc(NC(=O)c2ccc(NC3=NC4CS(=O)(=O)CC4S3)cc2)cc1 (stereo not drawn),"inconclusive [inhibitor, partial curve]"
2,CC(CC(=O)Nc1cccc(Cl)c1)c1ccccc1 (stereo not drawn),"inconclusive [inhibitor, single point]"
3,CCCNC(=O)Cn1sc2nc(C)cc(C)c2c1=O,"inconclusive [inhibitor, single point]"
4,CCOC(=O)c1[nH]cnc1C(=O)Nc1cccc(N)n1,inactive
5,Cc1cc(Cl)ccc1N=C1N=C(N)c2ccccc21,"inconclusive [inhibitor, single point]"
6,Cc1cccnc1C1=NOC(Cc2ccccc2)C(=O)N1Cc1ccc(F)cc1 (stereo not drawn),"inconclusive [inhibitor, single point]"
7,O=C1OCCC1Sc1nnc(-c2ccc3c(c2)OCO3)o1 (stereo not drawn),"inconclusive [inhibitor, partial curve, poor fit]"
8,CC1(C(=O)NC2CCN(Cc3ccccc3)CC2)CCN1Cc1ccc(OC(F)(F)F)cc1 (stereo not drawn),"inconclusive [inhibitor, partial curve, poor fit]"
9,FC(F)(F)c1cccc(NC(=S)NCC2COc3ccccc3O2)c1 (stereo not drawn),"inconclusive [inhibitor, single point]"
10,COCc1nc2ccccc2n1Cc1ccccc1Br,"inconclusive [inhibitor, single point]"
11,CCn1nc(C)c(C(=O)Nc2cc(Oc3ccc(Cl)cc3)cc([N+](=O)[O-])c2)c1C,"inconclusive [inhibitor, single point]"
12,CN(CC(=O)Nc1ccc(Cl)cc1)C(=O)CNC(=O)c1ccc2ccccc2c1,"inconclusive [inhibitor, single point]"
13,COc1ccc(CN(CCC#N)CCC2(c3ccccc3)CC(C)N(C)CC2C)cc1OC (stereo not drawn),active: 10 µM
14,COc1cc(-c2nc3ccccn3c2NCC2CCCO2)ccc1O (stereo not drawn),inactive
15,O=C(CN1CCN(Cc2ccccc2Cl)CC1)N/N=C/c1cccs1,"inconclusive [inhibitor, single point]"
16,Cc1ccc2cc(C#N)c(NCCNC(=O)C3CCC3)nc2c1C,inactive
17,CCn1ncc(Br)c1C(=O)Nc1c(C)nn(Cc2c(F)c(F)c(F)c(F)c2F)c1C,"inconclusive [inhibitor, single point]"
18,CCSc1ccc([C@@H]2[C@H]3C(=O)N(C)C(=O)[C@H]3[C@]3(C(=O)OC)CCCCN23)cc1,"inconclusive [inhibitor, single point]"
19,CC1CCCCN1S(=O)(=O)c1ccc(C(=O)Nc2nnc(-c3cccs3)o2)cc1 (stereo not drawn),"inconclusive [inhibitor, partial curve, poor fit]"
20,CC/C(=N\NC(=O)c1nnn(-c2nonc2N)c1-c1ccc2c(c1)OCO2)c1ccccc1,"inconclusive [inhibitor, single point]"
21,Cc1ccc2nc(N3C(=O)CNC3=S)sc2c1,"inconclusive [inhibitor, partial curve, poor fit]"
